Experimental data published in the supplement of paper PMC8728848.
This is one part of the list.

What was measured:
Assay in all cases: glycan array binding signal (z-score within array); higher = stronger binding
Details in all cases: glycan notation: IUPAC condensed, linker removed
[1] = target: Fuc(a1-2)[GalNAc(b1-3)]Gal
How it was run: (§1)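 Glycan array binding is given as a within-array Z-score, which can be read as non-binding when negative. The arrays, 3228 of them, came from the Consortium for Functional Glycomics database and were retained only where the protein sequence was available. Z-scores were averaged across arrays of the same protein sequence at different concentrations or buffers and across linkers.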

[2] = target: Fuc(a1-3)GlcNAc
How it was run: as §1

[3] = target: Fuc(a1-3)[Gal(b1-4)]Glc6S
How it was run: as §1

[4] = target: Fuc(a1-3)[Gal(b1-4)]GlcNAc
How it was run: as §1

[5] = target: Fuc(a1-3)[Gal(b1-4)]GlcNAc(b1-2)Man
How it was run: as §1

[6] = target: Fuc(a1-3)[Gal(b1-4)]GlcNAc(b1-2)Man(a1-3)[Fuc(a1-3)[Gal(b1-4)]GlcNAc(b1-2)Man(a1-6)]Man(b1-4)GlcNAc(b1-4)GlcNAc
How it was run: as §1

[7] = target: Fuc(a1-3)[Gal(b1-4)]GlcNAc(b1-2)Man(a1-3)[Fuc(a1-3)[Gal(b1-4)]GlcNAc(b1-2)Man(a1-6)]Man(b1-4)GlcNAc(b1-4)[Fuc(a1-6)]GlcNAc
How it was run: as §1

[8] = target: Fuc(a1-3)[Gal(b1-4)]GlcNAc(b1-3)Gal(b1-3)[Fuc(a1-4)]GlcNAc
How it was run: as §1

[9] = target: Fuc(a1-3)[Gal(b1-4)]GlcNAc(b1-3)Gal(b1-4)[Fuc(a1-3)]GlcNAc
How it was run: as §1

[10] = target: Fuc(a1-3)[Gal(b1-4)]GlcNAc(b1-3)Gal(b1-4)[Fuc(a1-3)]GlcNAc(b1-3)Gal(b1-4)[Fuc(a1-3)]GlcNAc
How it was run: as §1

[11] = target: Fuc(a1-3)[Gal(b1-4)]GlcNAc(b1-3)GalNAc
How it was run: as §1

[12] = target: Fuc(a1-3)[Gal(b1-4)]GlcNAc(b1-6)GalNAc
How it was run: as §1

[13] = target: Fuc(a1-3)[Gal(b1-4)]GlcNAc(b1-6)[Gal(b1-3)GlcNAc(b1-3)]Gal(b1-4)Glc
How it was run: as §1

[14] = target: Fuc(a1-3)[Gal(b1-4)]GlcNAc6S
How it was run: as §1

[15] = target: Fuc(a1-3)[Gal3S(b1-4)]Glc
How it was run: as §1

[16] = target: Fuc(a1-3)[Gal3S(b1-4)]GlcNAc
How it was run: as §1

[17] = target: Fuc(a1-3)[Gal3S(b1-4)]GlcNAc6S
How it was run: as §1

[18] = target: Fuc(a1-3)[GalNAc(b1-4)]GlcNAc
How it was run: as §1

[19] = target: Fuc(a1-3)[GalNAc(b1-4)]GlcNAc6S
How it was run: as §1

[20] = target: Fuc(a1-4)GlcNAc
How it was run: as §1

[21] = target: Fuc(b1-3)GlcNAc
How it was run: as §1

[22] = target: Gal(a1-2)Gal
How it was run: as §1

[23] = target: Gal(a1-3)Gal
How it was run: as §1

[24] = target: Gal(a1-3)Gal(b1-3)GlcNAc
How it was run: as §1

[25] = target: Gal(a1-3)Gal(b1-3)GlcNAc(b1-2)Man
How it was run: as §1

[26] = target: Gal(a1-3)Gal(b1-3)GlcNAc(b1-2)Man(a1-3)[Gal(a1-3)Gal(b1-3)GlcNAc(b1-2)Man(a1-6)]Man(b1-4)GlcNAc(b1-4)GlcNAc
How it was run: as §1

[27] = target: Gal(a1-3)Gal(b1-3)GlcNAc(b1-3)GalNAc
How it was run: as §1

[28] = target: Gal(a1-3)Gal(b1-3)GlcNAc(b1-6)GalNAc
How it was run: as §1

[29] = target: Gal(a1-3)Gal(b1-3)[Fuc(a1-4)]GlcNAc(b1-2)Man(a1-3)[Gal(a1-3)Gal(b1-3)[Fuc(a1-4)]GlcNAc(b1-2)Man(a1-6)]Man(b1-4)GlcNAc(b1-4)GlcNAc
How it was run: as §1

[30] = target: Gal(a1-3)Gal(b1-4)Glc
How it was run: as §1

[31] = target: Gal(a1-3)Gal(b1-4)GlcNAc
How it was run: as §1

[32] = target: Gal(a1-3)Gal(b1-4)GlcNAc(b1-2)Man
How it was run: as §1

[33] = target: Gal(a1-3)Gal(b1-4)GlcNAc(b1-2)Man(a1-3)[Gal(a1-3)Gal(b1-4)GlcNAc(b1-2)Man(a1-6)]Man(b1-4)GlcNAc(b1-4)GlcNAc
How it was run: as §1

[34] = target: Gal(a1-3)Gal(b1-4)GlcNAc(b1-3)GalNAc
How it was run: as §1

[35] = target: Gal(a1-3)Gal(b1-4)GlcNAc(b1-6)GalNAc
How it was run: as §1

[36] = target: Gal(a1-3)Gal(b1-4)[Fuc(a1-3)]GlcNAc
How it was run: as §1

[37] = target: Gal(a1-3)Gal(b1-4)[Fuc(a1-3)]GlcNAc(b1-2)Man(a1-3)[Gal(a1-3)Gal(b1-4)[Fuc(a1-3)]GlcNAc(b1-2)Man(a1-6)]Man(b1-4)GlcNAc(b1-4)GlcNAc
How it was run: as §1

B1: PkBDPgamma (Plasmodium knowlesi) (protein)
chain: SAINQIFLQNNVMDKCNDKRKRGERDWDCPTEKDVCIPDRRYQLCMMEITNLVDTDTHFHSDIIFRKSYSRRRLIYDVGGRGDLLLKKYNNVYSEDLCKDIKWSLQDFGDIIMGTDMEGIGYSLVVQNNLRSIFGTGTSAELDRKKWWNDHKKDIWKAMILSVKEKNRYSAWNCKEDVQIKVEPQIYRWIREWGRDYMSEFREQRRKLNEKCEDKLYYSTMLICTLPPCNNACKSYDEWITGKKKQWDVLSTKFSSVKKAQKIETENIARAYDILKQELNGFNEVTFENEINKRDKLYNYFCVCIVQEARKNTQENVKNVGSGVESKAPSSNPINEAVKSSSGEGKVQEDSAHRSVNEGEGKSSTNEADPGSQPGAAASGGGSGGGTGGGVDLAPQMLRELQETNAALQDVRELLRQQVKEITFLKNTVMECDACGGPLDRNLPPLAPLGPTGGWSHPQFEK
- glycan array binding signal (z-score) [1]: 0.501
- glycan array binding signal (z-score) [2]: 0.556
- glycan array binding signal (z-score) [3]: 0.195
- glycan array binding signal (z-score) [4]: 0.125
- glycan array binding signal (z-score) [5]: -0.376
- glycan array binding signal (z-score) [6]: -0.703
- glycan array binding signal (z-score) [7]: -0.248
- glycan array binding signal (z-score) [8]: -0.519
- glycan array binding signal (z-score) [9]: -0.046
- glycan array binding signal (z-score) [10]: -0.29
- glycan array binding signal (z-score) [11]: 0.185
- glycan array binding signal (z-score) [12]: -0.182
- glycan array binding signal (z-score) [13]: -0.449
- glycan array binding signal (z-score) [14]: -0.407
- glycan array binding signal (z-score) [15]: 0.269
- glycan array binding signal (z-score) [16]: -0.608
- glycan array binding signal (z-score) [17]: -0.001
- glycan array binding signal (z-score) [18]: -0.118
- glycan array binding signal (z-score) [19]: -0.242
- glycan array binding signal (z-score) [20]: -0.191
- glycan array binding signal (z-score) [21]: -0.411
- glycan array binding signal (z-score) [22]: -0.098
- glycan array binding signal (z-score) [23]: -0.09
- glycan array binding signal (z-score) [24]: 0.15
- glycan array binding signal (z-score) [25]: -0.129
- glycan array binding signal (z-score) [26]: 0.486
- glycan array binding signal (z-score) [27]: -0.118
- glycan array binding signal (z-score) [28]: 0.024
- glycan array binding signal (z-score) [29]: -0.502
- glycan array binding signal (z-score) [30]: -0.045
- glycan array binding signal (z-score) [31]: -0.331
- glycan array binding signal (z-score) [32]: -0.252
- glycan array binding signal (z-score) [33]: -0.202
- glycan array binding signal (z-score) [34]: -0.056
- glycan array binding signal (z-score) [35]: 0.003
- glycan array binding signal (z-score) [36]: 0.021
- glycan array binding signal (z-score) [37]: -0.045
